Measured values taken from a collection of fitness landscapes (doi:10.1016/j.celrep.2020.107928).
The full ranking holds about 81,000 sequences; the median of “one-hybrid fitness for binding NBS DNA” is about -0.1, and the highest 2% start at about 0.36. The list shows a part of the results.

B1: Caulobacter ParB omega fusion; a variant is named by its letters at X, in order, B8GW30 (parent)
chain: MESVVVGEPGMSEGRRGLGRGLSALLGEVDAAPAQAPGEQLGGSREAPIEILQRNPDQPRRTFREEDLEDLSNSIREKGVLQPILVRPSPDTAGEYQIVAGERAWRAAQRAGLKTVPIMVRELDDLAVLEIGIIENVQRADLNVLEEALSYKVLMEKFERTQENIAQTIGKSXSHVANXMRLLXLPDEVQSYLVSGELTAXHARAIAAAADPVALAKQIIEGGLSVRETEALARKAPNLSAGKSKGGRPPRVKDTDTQALESDLSSVLGLDVSIDHRGSTGTLTITYATLEQLDDLCNRLTRGI

Variants of: B1
Test: one-hybrid fitness for binding NBS DNA (the Noc-binding site; scaled: cognate 1, non-cognate 0); higher = stronger binding
Conditions: with NBS DNA site
Method in brief: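 The reporter was HIS3, with the binding site 19 bp from the promoter, in E. coli USO used for bacterial one-hybrid selection of Caulobacter ParB libraries with four specificity codons randomised. Growth was on M9 lacking histidine, with 0.1 mM IPTG and 5 mM 3-AT, for 48 hours at 37°C. Illumina sequencing covered plasmids before and after selection; three replicate libraries were pooled and variants with under 10 reads dropped. A fitness score is the log change in variant-to-wild-type read ratio, rescaled to the cognate and non-cognate references.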

Variant	one-hybrid fitness for binding NBS DNA
YNRG	≤ 0.2
ADSL	≤ 0.2
DLSW	≤ 0.2
RHSP	≤ 0.2
RLMY	≤ 0.2
EASV	≤ 0.2
YSAL	≤ 0.2
YWKT	≤ 0.2
VLTC	≤ 0.2
PYDR	≤ 0.2
VWLC	≤ 0.2
AIER	≤ 0.2
HENS	≤ 0.2
LCWL	≤ 0.2
PSNE	≤ 0.2
MERE	≤ 0.2
LRHP	≤ 0.2
GFNW	≤ 0.2
CFSY	≤ 0.2
WYSR	≤ 0.2
VHAM	≤ 0.2
IRRD	≤ 0.2
SMQS	≤ 0.2
NYMS	≤ 0.2
ILPE	≤ 0.2

Variant	one-hybrid fitness for binding NBS DNA
YVTE	≤ 0.2
PNDQ	≤ 0.2
CFST	≤ 0.2
QTER	0.458
MGGV	≤ 0.2
NWPC	≤ 0.2
STSW	≤ 0.2
PQCH	≤ 0.2
RRGR	0.744
PTPC	≤ 0.2
ANRT	≤ 0.2
AENM	≤ 0.2
RGSP	≤ 0.2
MPLN	≤ 0.2
DYIF	≤ 0.2
RQDK	≤ 0.2
IDAT	≤ 0.2
PKIY	≤ 0.2
KKKL	≤ 0.2
HRPC	≤ 0.2
KWYT	≤ 0.2
NTSC	≤ 0.2
LCRN	≤ 0.2
LLCV	≤ 0.2
NWAE	≤ 0.2

Variant	one-hybrid fitness for binding NBS DNA
TCRV	≤ 0.2
HMTC	≤ 0.2
LANN	≤ 0.2
LDNN	≤ 0.2
THEQ	≤ 0.2
FRAR	≤ 0.2
PSFR	≤ 0.2
ECRS	≤ 0.2
LIIR	≤ 0.2
TSVQ	≤ 0.2
KLRP	≤ 0.2
LAVC	≤ 0.2
PMDF	≤ 0.2
HRMS	≤ 0.2
SNHS	≤ 0.2
CHSH	≤ 0.2
KSFC	≤ 0.2
RQCT	0.382
QAKH	0.541
EQYF	≤ 0.2
KGHN	≤ 0.2
MPKL	≤ 0.2
RDRM	≤ 0.2
IHNN	≤ 0.2
QIEE	≤ 0.2

Variant	one-hybrid fitness for binding NBS DNA
ILSS	≤ 0.2
TRHD	≤ 0.2
YILP	≤ 0.2
RSEP	≤ 0.2
HPPI	≤ 0.2
KVQC	≤ 0.2
WPQV	≤ 0.2
REHG	≤ 0.2
TTLT	≤ 0.2
GSGC	≤ 0.2
PSIM	≤ 0.2
LSPV	≤ 0.2
LIAK	≤ 0.2
QIAS	0.261
TQQH	≤ 0.2
QKPQ	≤ 0.2
AYSR	≤ 0.2
WGHG	≤ 0.2
ATHS	≤ 0.2
KGFT	≤ 0.2
HSKA	≤ 0.2
TIKC	≤ 0.2
SNPQ	≤ 0.2
VWHC	≤ 0.2
RAIN	≤ 0.2

Variant	one-hybrid fitness for binding NBS DNA
ANIE	≤ 0.2
DRCM	≤ 0.2
QDKT	≤ 0.2
LMHW	≤ 0.2
MSTI	≤ 0.2
VQRN	≤ 0.2
LAAC	≤ 0.2
RTFQ	≤ 0.2
ITYR	≤ 0.2
ERRH	≤ 0.2
VSYP	≤ 0.2
LQST	≤ 0.2
PLFM	≤ 0.2
RQLN	≤ 0.2
MVFR	≤ 0.2
MYQT	≤ 0.2
VSPS	≤ 0.2
SPHL	≤ 0.2
DMAI	≤ 0.2
ASTY	≤ 0.2
YSVM	≤ 0.2
HQHL	≤ 0.2
SRQP	≤ 0.2
FASI	≤ 0.2
IEHL	≤ 0.2

Variant	one-hybrid fitness for binding NBS DNA
KCDR	≤ 0.2
LPAP	≤ 0.2
TWLC	≤ 0.2
PLKT	≤ 0.2
REYL	≤ 0.2
TQVT	≤ 0.2
HHNT	≤ 0.2
DNRN	≤ 0.2
HRVG	≤ 0.2
KGRN	≤ 0.2
RYVL	≤ 0.2
NTST	≤ 0.2
PHMR	≤ 0.2
HHPF	≤ 0.2
EGKR	≤ 0.2
RAGP	≤ 0.2
TTIS	≤ 0.2
ACHI	≤ 0.2
GPDS	≤ 0.2
DSET	≤ 0.2
EPPN	≤ 0.2
KPTD	≤ 0.2
QRTQ	0.437
KMTL	≤ 0.2
PNYR	≤ 0.2

Variant	one-hybrid fitness for binding NBS DNA
PIEE	≤ 0.2
AMKV	≤ 0.2
PYRP	≤ 0.2
RYWD	≤ 0.2
YHQC	≤ 0.2
FCIL	≤ 0.2
LTMD	≤ 0.2
RQYS	0.322
VVLG	≤ 0.2
QVPM	≤ 0.2
EPVR	≤ 0.2
QPTK	≤ 0.2
AVDR	≤ 0.2
RVMM	≤ 0.2
TAPM	≤ 0.2
DNRY	≤ 0.2
RIDQ	≤ 0.2
LREF	≤ 0.2
NRWA	≤ 0.2
WKKR	≤ 0.2
ESQE	≤ 0.2
PTIY	≤ 0.2
IFTG	≤ 0.2
ASTH	≤ 0.2
AYQY	≤ 0.2

Variant	one-hybrid fitness for binding NBS DNA
EKEG	≤ 0.2
KRSL	≤ 0.2
SYGF	≤ 0.2
SAYT	≤ 0.2
EVSV	≤ 0.2
ITHW	≤ 0.2
NPMR	≤ 0.2
YAVS	≤ 0.2
AQDS	≤ 0.2
RGWN	≤ 0.2
QAKD	≤ 0.2
STTL	≤ 0.2
PNYA	≤ 0.2
YGPR	≤ 0.2
IQDS	≤ 0.2
RCPQ	≤ 0.2
GCWR	≤ 0.2
KAGT	≤ 0.2
RELR	≤ 0.2
IGYC	≤ 0.2
